Laboratory results taken from PubChem BioAssay AID504467 (National Center for Advancing Translational Sciences (NCATS), 2011).
About 7,700 (2.3%) of roughly 330,000 compounds were called active. Not shown: some 26% with an inconclusive outcome. The call rests on the fitted dose curve; in most records, active means well fitted inhibition curve with a large enough effect; inconclusive means small, poorly fitted or top-dose-only effect, or effect the other way; inactive means flat fitted curve, though single readings scatter. The entries are a selection whose mix differs from that of the whole data set.

Experiment: qHTS screen for small molecules that inhibit ELG1-dependent DNA repair in human embryonic kidney (HEK293T) cells expressing luciferase-tagged ELG1; further: nearly all actives have a fitted effect of over 55% in size
Conditions: HEK293T ELG1-luciferase reporter, luminescence, 16 h, DNA damage induced by 5-fluorouridine; series mostly up to 46.1 µM; activity change, negative = inhibition: at the top concentration
Method in brief: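 Luminescence from the luciferase reporter, measured 30 min after ONE-Glo reagent at room temperature, was the read-out. Beforehand, 2,000 cells per well were exposed for 16 hr at 37 °C to 5-fluorouridine together with compound or vehicle.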
On the % scale 0 is the no-effect control and ±100 the full control effect; potency means the concentration at half of the fitted maximal effect.

SMILES	Potency	activity change, negative = inhibition
COc1ccc(NC(=O)Cc2ccc(C)c(C)c2)cc1S(=O)(=O)N1CCCCC1	active: 25.9 µM	
C[C@H](NC(=O)c1ncn(C)c1C(=O)N[C@@H](C)c1ccccc1)c1ccccc1		inactive: 7.09%
C[C@@H]1COC(=O)[C@H](CC(=O)OC(C)(C)C)C/C=C\C[C@H](CC(=O)NCCO)C(=O)N1		inactive: 19.6%
C=CCC[C@@H](Cc1ccc(F)cc1)C(=O)OC[C@@H](Cc1c[nH]c2ccccc12)NC(=O)[C@@H](CC=C)CC(=O)N[C@@H](CO)Cc1ccccc1		inactive: 2.76%
C[C@@H]1CN([C@H](C)CO)C(=O)c2cccc(NC(=O)c3ccncc3)c2O[C@@H]1CN(C)Cc1ccc(C(=O)O)cc1		inactive: 25.8%
C[C@@H]1CC[C@@]2(O[C@H](CCO)C[C@H](O)[C@H]2O)O1		inactive: 13.4%
COc1ccc(Cl)cc1C(=O)OCC(=O)Nc1sccc1C(N)=O	active: 23.1 µM	
COc1ccccc1NC(=O)/C=C/C(=O)O		inactive: 1.85%
CN1CCN(C(=O)/C=C\c2ccc(Cl)cc2)CC1		inactive: 27.6%
O=c1[nH]c(=O)n(C2C[C@H](O)[C@@H](CO)O2)cc1C(F)(F)F (some centres not stated)		inactive: -1.55%
C/C=C(/C)C(=O)O[C@@H]1Cc2c(ccc3ccc(=O)oc23)OC1(C)C		inactive: -2.18%
C=CCN(CC=C)S(=O)(=O)c1ccc(C(=O)Nc2nnc(CSC)o2)cc1	active: 18.3 µM	
O=S(=O)(NCc1ccccc1)c1ccc(S(=O)(=O)N(Cc2ccccn2)C2CCCC2)cc1	active: 20.6 µM	
CC(C)(C)OC(=O)C[C@H]1C/C=C\C[C@@H](CC(=O)NCCO)C(=O)NC[C@@H](c2ccccc2)OC1=O		inactive: 15.1%
CCOC(=O)[C@@H]1[C@H]2COc3ccc(Br)cc3[C@@H]2N2C(=O)N(c3cccc(F)c3)C(=O)[C@@]12C		inactive: 14.8%
COc1cc([N+](=O)[O-])ccc1NC(=O)/C=C\C(=O)O		inactive: -10.8%
COc1ccc(/C=C(/NC(=O)c2ccccc2)C(=O)NCc2ccco2)cc1		inactive: -0.883%
CCCCCCSc1ccc([C@@H]2[C@@H]3C(=O)N(C)C(=O)[C@@H]3[C@]3(C(=O)OC)CCCCN23)cc1OC		inactive: -1.91%
Cc1ccc(CN2CCc3c(OCC(=O)Nc4cc(C)ccc4C)cccc3C2=O)cc1	active: 23.1 µM	
COc1ccc(/C=C(/NC(=O)c2ccccc2Cl)C(=O)NCCCC(=O)O)cc1		inactive: 5.63%
Cc1ccc(C(=O)N/C(=C/c2ccco2)C(=O)NC2CCS(=O)(=O)C2)cc1 (configuration not stated)		inactive: -1.34%
COc1cc(CCCN2CCNC[C@H]2Cc2ccc(O)cc2)cc(OC)c1OC		inactive: 30%
COC(=O)[C@@]12CCCCN1[C@H](c1ccc(-c3ccc(F)cc3)c(OC)c1)[C@@H]1C(=O)N(C)C(=O)[C@@H]12		inactive: -16.5%
COc1c2ccoc2nc2c(OC)c(OCC(O)C(C)(C)O)ccc12 (configuration not stated)		inactive: 11.8%
CCOC(=O)[C@@H]1[C@H]2COc3cc(OC)ccc3[C@@H]2N2C(=O)N(c3ccccc3)C(=O)[C@]12C		inactive: -0.238%
C[C@@H]1COC(=O)[C@@H](CC(=O)OC(C)(C)C)C/C=C\C[C@@H](CC(=O)NCCO)C(=O)N1		inactive: 28.6%
C=CC[C@H](CC(=O)OC(C)(C)C)C(=O)OC[C@@H]1CCCN1C(=O)[C@H](CC=C)CC(=O)N[C@H](CO)Cc1ccccc1		inactive: -21.8%
